# Reference: the supplement of paper PMC8728848
# This is one part of the list.
# What was measured:
# Experiment in all cases: glycan array binding signal (z-score within array); higher = stronger binding
# Conditions in all cases: glycan notation: IUPAC condensed, linker removed; mutation: R144S
# [1] = molecular target: Gal(b1-4)GlcNAc(b1-2)Man(a1-6)[GlcNAc(b1-2)Man(a1-3)]Man(b1-4)GlcNAc(b1-4)GlcNAc
# Procedure, shortened: (§1)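 Glycan array data were curated from 3228 arrays in the Consortium for Functional Glycomics database and kept only where the protein sequence was available. Glycan names were converted to IUPAC-condensed notation, and columns mapping to the same glycan were averaged. The binding signal is a within-array Z-score, averaged across arrays of the same protein sequence at different concentrations or buffers and across linkers. Negative Z-scores can be read as non-binding.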
# [2] = molecular target: Gal(b1-4)GlcNAc(b1-2)Man(a1-6)[Man(a1-3)]Man(b1-4)GlcNAc(b1-4)GlcNAc
# Procedure, shortened: as §1
# [3] = molecular target: Gal(b1-4)GlcNAc(b1-2)[Gal(b1-4)GlcNAc(b1-4)]Man(a1-3)[Gal(b1-4)GlcNAc(b1-2)Man(a1-6)]Man(b1-4)GlcNAc(b1-4)GlcNAc
# Procedure, shortened: as §1
# [4] = molecular target: Gal(b1-4)GlcNAc(b1-2)[Gal(b1-4)GlcNAc(b1-4)]Man(a1-3)[Gal(b1-4)GlcNAc(b1-2)[Gal(b1-4)GlcNAc(b1-6)]Man(a1-6)]Man(b1-4)GlcNAc(b1-4)GlcNAc
# Procedure, shortened: as §1
# [5] = molecular target: Gal(b1-4)GlcNAc(b1-3)Gal(b1-3)GlcNAc
# Procedure, shortened: as §1
# [6] = molecular target: Gal(b1-4)GlcNAc(b1-3)Gal(b1-4)Glc
# Procedure, shortened: as §1
# [7] = molecular target: Gal(b1-4)GlcNAc(b1-3)Gal(b1-4)GlcNAc
# Procedure, shortened: as §1
# [8] = molecular target: Gal(b1-4)GlcNAc(b1-3)Gal(b1-4)GlcNAc(b1-3)Gal(b1-4)GlcNAc
# Procedure, shortened: as §1
# [9] = molecular target: Gal(b1-4)GlcNAc(b1-3)Gal(b1-4)[Fuc(a1-3)]GlcNAc(b1-3)Gal(b1-4)[Fuc(a1-3)]GlcNAc
# Procedure, shortened: as §1
# [10] = molecular target: Gal(b1-4)GlcNAc(b1-3)GalNAc
# Procedure, shortened: as §1
# [11] = molecular target: Gal(b1-4)GlcNAc(b1-3)[Gal(b1-4)GlcNAc(b1-6)]Gal(b1-4)GlcNAc
# Procedure, shortened: as §1
# [12] = molecular target: Gal(b1-4)GlcNAc(b1-3)[Gal(b1-4)GlcNAc(b1-6)]GalNAc
# Procedure, shortened: as §1
# [13] = molecular target: Gal(b1-4)GlcNAc(b1-3)[GlcNAc(b1-6)]Gal(b1-4)GlcNAc
# Procedure, shortened: as §1
# [14] = molecular target: Gal(b1-4)GlcNAc(b1-6)Gal(b1-4)GlcNAc
# Procedure, shortened: as §1
# [15] = molecular target: Gal(b1-4)GlcNAc(b1-6)GalNAc
# Procedure, shortened: as §1
# [16] = molecular target: Gal(b1-4)GlcNAc(b1-6)[Gal(b1-3)]GalNAc
# Procedure, shortened: as §1
# Gal3S(b1-3)GalNAc = molecular target: Gal3S(b1-3)GalNAc
# Procedure, shortened: as §1
# Gal3S(b1-3)GlcNAc = molecular target: Gal3S(b1-3)GlcNAc
# Procedure, shortened: as §1
# [17] = molecular target: Gal3S(b1-3)[Fuc(a1-4)]GlcNAc
# Procedure, shortened: as §1
# Gal3S(b1-4)Glc = molecular target: Gal3S(b1-4)Glc
# Procedure, shortened: as §1
# Gal3S(b1-4)Glc6S = molecular target: Gal3S(b1-4)Glc6S
# Procedure, shortened: as §1
# Gal3S(b1-4)GlcNAc = molecular target: Gal3S(b1-4)GlcNAc
# Procedure, shortened: as §1
# Gal3S(b1-4)GlcNAc6S = molecular target: Gal3S(b1-4)GlcNAc6S
# Procedure, shortened: as §1
# [18] = molecular target: Gal3S(b1-4)[Fuc(a1-3)]Glc
# Procedure, shortened: as §1
# [19] = molecular target: Gal3S(b1-4)[Fuc(a1-3)]Glc6S
# Procedure, shortened: as §1
# Gal3S4S(b1-4)GlcNAc = molecular target: Gal3S4S(b1-4)GlcNAc
# Procedure, shortened: as §1
# Gal3S6S(b1-4)GlcNAc = molecular target: Gal3S6S(b1-4)GlcNAc
# Procedure, shortened: as §1
# Gal3S6S(b1-4)GlcNAc6S = molecular target: Gal3S6S(b1-4)GlcNAc6S
# Procedure, shortened: as §1
# Gal4S(b1-4)GlcNAc = molecular target: Gal4S(b1-4)GlcNAc
# Procedure, shortened: as §1
# Gal4S6S(b1-4)GlcNAc = molecular target: Gal4S6S(b1-4)GlcNAc
# Procedure, shortened: as §1
# Gal6S(b1-4)Glc = molecular target: Gal6S(b1-4)Glc
# Procedure, shortened: as §1
# Gal6S(b1-4)Glc6S = molecular target: Gal6S(b1-4)Glc6S
# Procedure, shortened: as §1
# Gal6S(b1-4)GlcNAc = molecular target: Gal6S(b1-4)GlcNAc
# Procedure, shortened: as §1
# Gal6S(b1-4)GlcNAc6S = molecular target: Gal6S(b1-4)GlcNAc6S
# Procedure, shortened: as §1
# GalNAc(a1-3)Gal = molecular target: GalNAc(a1-3)Gal
# Procedure, shortened: as §1
# GalNAc(a1-3)GalNAc = molecular target: GalNAc(a1-3)GalNAc
# Procedure, shortened: as §1
# [20] = molecular target: GalNAc(a1-3)GalNAc(a1-3)Gal(a1-4)Gal(b1-4)GlcNAc
# Procedure, shortened: as §1
# GalNAc(b1-3)Gal = molecular target: GalNAc(b1-3)Gal
# Procedure, shortened: as §1
binder,measurement,setting,value
"Gal 3 (Homo sapiens), P17931 (protein) MADNFSLHDALSGSGNPNPQGWPGAWGNQPAGAGGYPGASYPGAYPGQAPPGAYPGQAPPGAYHGAPGAYPGAPAPGVYPGPPSGPGAYPSSGQPSAPGAYPATGPYGAPAGPLIVPYNLPLPGGVVPRMLITILGTVKPNANSILDFQRGNDVAFHFNPRFNENNRRVIVCNTKLDNNWGREERQSVFPFESGKPFKIQVLVEPDHFKVAVNDAHLLQYNHRVKKLNEISKLGISGDIDLTSASYTMI",glycan array binding signal (z-score),[1],0.266
same,glycan array binding signal (z-score),[2],-0.207
same,glycan array binding signal (z-score),[3],1.12
same,glycan array binding signal (z-score),[4],2.24
same,glycan array binding signal (z-score),[5],1.08
same,glycan array binding signal (z-score),[6],0.743
same,glycan array binding signal (z-score),[7],1.08
same,glycan array binding signal (z-score),[8],2.54
same,glycan array binding signal (z-score),[9],0.336
same,glycan array binding signal (z-score),[10],-0.147
same,glycan array binding signal (z-score),[11],1.2
same,glycan array binding signal (z-score),[12],0.792
same,glycan array binding signal (z-score),[13],1.43
same,glycan array binding signal (z-score),[14],-0.305
same,glycan array binding signal (z-score),[15],-0.34
same,glycan array binding signal (z-score),[16],-0.323
same,glycan array binding signal (z-score),Gal3S(b1-3)GalNAc,-0.346
same,glycan array binding signal (z-score),Gal3S(b1-3)GlcNAc,-0.354
same,glycan array binding signal (z-score),[17],-0.363
same,glycan array binding signal (z-score),Gal3S(b1-4)Glc,-0.361
same,glycan array binding signal (z-score),Gal3S(b1-4)Glc6S,-0.339
same,glycan array binding signal (z-score),Gal3S(b1-4)GlcNAc,-0.359
same,glycan array binding signal (z-score),Gal3S(b1-4)GlcNAc6S,-0.288
same,glycan array binding signal (z-score),[18],-0.358
same,glycan array binding signal (z-score),[19],-0.359
same,glycan array binding signal (z-score),Gal3S4S(b1-4)GlcNAc,-0.361
same,glycan array binding signal (z-score),Gal3S6S(b1-4)GlcNAc,-0.358
same,glycan array binding signal (z-score),Gal3S6S(b1-4)GlcNAc6S,-0.361
same,glycan array binding signal (z-score),Gal4S(b1-4)GlcNAc,-0.344
same,glycan array binding signal (z-score),Gal4S6S(b1-4)GlcNAc,-0.364
same,glycan array binding signal (z-score),Gal6S(b1-4)Glc,-0.345
same,glycan array binding signal (z-score),Gal6S(b1-4)Glc6S,-0.357
same,glycan array binding signal (z-score),Gal6S(b1-4)GlcNAc,-0.309
same,glycan array binding signal (z-score),Gal6S(b1-4)GlcNAc6S,-0.364
same,glycan array binding signal (z-score),GalNAc(a1-3)Gal,-0.354
same,glycan array binding signal (z-score),GalNAc(a1-3)GalNAc,-0.352
same,glycan array binding signal (z-score),[20],0.333
same,glycan array binding signal (z-score),GalNAc(b1-3)Gal,-0.358
